The values that follow come from publication PMC4336329 (PLoS ONE, 2015).

The campaign covered roughly 310,000 compounds. About 2,200 (0.71%) showed an effect of 50% or more. The effect is printed as a negative number. The list shows a part of the results.

Sequence of human ether-à-go-go-related gene (hERG) potassium channel (Q12809 whole entry, looked up): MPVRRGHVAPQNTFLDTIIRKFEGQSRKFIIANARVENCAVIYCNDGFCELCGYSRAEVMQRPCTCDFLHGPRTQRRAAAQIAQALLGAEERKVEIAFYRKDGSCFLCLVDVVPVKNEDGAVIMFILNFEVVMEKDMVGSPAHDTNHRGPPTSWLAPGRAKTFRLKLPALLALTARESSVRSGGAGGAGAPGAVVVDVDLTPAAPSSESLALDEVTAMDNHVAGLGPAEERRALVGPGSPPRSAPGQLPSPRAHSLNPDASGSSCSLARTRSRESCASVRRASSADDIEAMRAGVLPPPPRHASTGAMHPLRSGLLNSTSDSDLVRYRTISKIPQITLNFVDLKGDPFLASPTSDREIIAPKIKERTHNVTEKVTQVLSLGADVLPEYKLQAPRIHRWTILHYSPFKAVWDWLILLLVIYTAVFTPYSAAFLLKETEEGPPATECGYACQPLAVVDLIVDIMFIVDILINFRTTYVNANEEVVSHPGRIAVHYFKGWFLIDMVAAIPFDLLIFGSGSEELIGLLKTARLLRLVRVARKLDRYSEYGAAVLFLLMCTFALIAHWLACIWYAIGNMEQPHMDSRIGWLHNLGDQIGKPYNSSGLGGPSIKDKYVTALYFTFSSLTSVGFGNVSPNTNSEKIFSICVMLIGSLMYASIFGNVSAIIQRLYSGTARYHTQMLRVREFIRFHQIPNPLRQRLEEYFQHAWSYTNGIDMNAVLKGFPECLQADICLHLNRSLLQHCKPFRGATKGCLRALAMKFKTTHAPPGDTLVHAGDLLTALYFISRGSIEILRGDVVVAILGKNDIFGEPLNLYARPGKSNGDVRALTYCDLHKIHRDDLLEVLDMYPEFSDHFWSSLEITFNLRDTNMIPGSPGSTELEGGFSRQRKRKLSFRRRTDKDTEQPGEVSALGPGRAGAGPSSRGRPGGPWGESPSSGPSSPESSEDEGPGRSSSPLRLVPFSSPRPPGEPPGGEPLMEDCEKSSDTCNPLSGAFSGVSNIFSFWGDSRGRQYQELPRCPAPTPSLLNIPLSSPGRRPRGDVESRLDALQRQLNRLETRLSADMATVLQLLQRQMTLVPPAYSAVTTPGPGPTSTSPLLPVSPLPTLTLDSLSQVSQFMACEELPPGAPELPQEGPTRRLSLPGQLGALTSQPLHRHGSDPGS

The assay addresses human ether-à-go-go-related gene (hERG) potassium channel (human, UniProt Q12809). Put plainly: primary screen, population patch clamp on CHO cells stably expressing hERG.
Take `CCC(=O)NC(=S)Nc1ccc(NC(=O)c2ccc(C)c([N+](=O)[O-])c2)cc1`: the “hERG current change (%, negative = inhibition) at 1uM” value was 11.2%.

In the case of `Cc1ccc(-c2cc(C(=O)N3CCN(C(=O)c4ccco4)CC3)[nH]n2)cc1C`, the “hERG current change (%, negative = inhibition) at 1uM” value was 14.4%.

With `CN(Cc1ccccc1)C(=O)COc1ccccc1Cl`, the “hERG current change (%, negative = inhibition) at 1uM” value amounted to 11%.

For the compound `O=C(Nc1ccc(S(=O)(=O)Nc2ncccn2)cc1)C1=COCCO1`, the “hERG current change (%, negative = inhibition) at 1uM” value was 4.77%.

`O=C(NCc1ccc2c(c1)OCO2)c1nn(-c2ccccc2)c(=O)c2ccccc12`: the “hERG current change (%, negative = inhibition) at 1uM” value is -10.7%.

Take `C1COCCNCCOCCOCCN1`: the “hERG current change (%, negative = inhibition) at 1uM” value turned out to be 7.88%.

For `CCOC(=O)c1nnn(-c2nonc2N)c1CNc1ccccc1`, the “hERG current change (%, negative = inhibition) at 1uM” value is -3.77%.

For the compound `O=C(CN(C(=O)Cn1nnc(-c2cccs2)n1)c1ccc2c(c1)OCCO2)NCc1ccccc1`, the “hERG current change (%, negative = inhibition) at 1uM” value was determined as 8.53%.

Turning to `Cc1nnc(SCc2ccccn2)n(N)c1=O`, the “hERG current change (%, negative = inhibition) at 1uM” value amounted to 8.41%.

On to `CCOC(=O)N1CCC(c2[nH][nH]c(=O)c2C)CC1`, for which the “hERG current change (%, negative = inhibition) at 1uM” value was 14.9%.

Take `CCC(C)(C)NC(=O)c1cc([N+](=O)[O-])ccc1N1CCCCC1`: the “hERG current change (%, negative = inhibition) at 1uM” value amounted to 6.73%.

For `COc1ccc(C2=NN(C(=O)COC(=O)c3ccc(NC(=O)CC#N)cc3)C(c3ccco3)C2)cc1` (centres unmarked), the “hERG current change (%, negative = inhibition) at 1uM” value is given as 8.45%.

With `CC(=O)Nc1ccc(C(=O)N2CCN(S(=O)(=O)c3ccc4c(c3)OCCCO4)CC2)cc1`, the “hERG current change (%, negative = inhibition) at 1uM” value worked out at 13.9%.

As for `Cn1cc(C2CC(c3ccccc3)=NN2C(=O)c2ccccc2)c2ccccc21` (centres unmarked), the “hERG current change (%, negative = inhibition) at 1uM” value is -9.01%.

As to `CCOc1ccccc1NC(=O)c1cc(S(=O)(=O)NCc2ccco2)ccc1F`, the “hERG current change (%, negative = inhibition) at 1uM” value turned out to be 2.3%.

Consider `Cn1c(COc2ccc(Cl)cc2)nnc1SCc1ncc(-c2ccccc2)o1`, for which the “hERG current change (%, negative = inhibition) at 1uM” value is -31.2%.

Regarding `CN(C)C(=O)CCc1nc2sc3c(c2c(=O)[nH]1)CCCC3`, the “hERG current change (%, negative = inhibition) at 1uM” value was determined as 10.3%.

For the compound `CCC(=O)Nc1cccc(C2=NOC3(C2)C[C@@H](C(N)=O)N(C(=O)C2(C)CC2)C3)c1` (some centres unmarked), the “hERG current change (%, negative = inhibition) at 1uM” value is 12.8%.

As for `Cc1cc(SCC(=O)N(C)C2CCS(=O)(=O)C2)nc2c(C)cccc12` (centres unmarked), the “hERG current change (%, negative = inhibition) at 1uM” value stood at 15%.

With `COc1ccc(CC(=O)NCC(C)(C)N2CCOCC2)cc1`, the “hERG current change (%, negative = inhibition) at 1uM” value is 17.2%.

For the compound `COc1ccc(C2c3ccc(O)cc3Oc3ncn(CC(C)C)c(=N)c32)cc1` (centres unmarked), the “hERG current change (%, negative = inhibition) at 1uM” value was -22.2%.

`Cc1ccc(C(=O)c2coc3ccc(O)c(CN(C)C)c23)cc1.Cl`: the “hERG current change (%, negative = inhibition) at 1uM” value is recorded as -16.2%.

On to `Cc1cc(C)n(CC(C)Nc2nc3nonc3nc2N2CCCCC2)n1` (centres unmarked), for which the “hERG current change (%, negative = inhibition) at 1uM” value came to 15.4%.

Take `COc1cc(C(C)=O)ccc1OCCCOc1cccc2cccnc12`: the “hERG current change (%, negative = inhibition) at 1uM” value amounted to 8.17%.

In the case of `CN(/N=C/c1ccc(O)cc1O)c1nc(-c2ccccc2)cc(-c2ccccc2)n1`, the “hERG current change (%, negative = inhibition) at 1uM” value came out at 9.81%.

Take `Cc1cc(C)nc(N(C#N)S(=O)(=O)c2ccccc2)n1`: the “hERG current change (%, negative = inhibition) at 1uM” value is 13%.

For `Cc1cc(C(=O)Nc2ccc(F)cc2C)cs1`, the “hERG current change (%, negative = inhibition) at 1uM” value was -0.428%.

`COc1cc(-c2nc(C)c(C(C)=O)n2O)ccc1OCC(=O)Nc1ccc(Cl)cc1`: the “hERG current change (%, negative = inhibition) at 1uM” value came out at 11.2%.

Take `CCOc1ccc(NC(=O)C2CCN(S(=O)(=O)c3c(C)noc3C)CC2)cc1`: the “hERG current change (%, negative = inhibition) at 1uM” value is given as 1.82%.

Take `COc1cc(C(C(=O)NC(C)(C)C)N(C(=O)CNC(=O)c2cccs2)c2cccnc2)cc(OC)c1OC` (centres unmarked): the “hERG current change (%, negative = inhibition) at 1uM” value was determined as 21.9%.

For the compound `CCCc1nnc(SCC(=O)N2CCCC2)n1Cc1ccco1`, the “hERG current change (%, negative = inhibition) at 1uM” value was 6.76%.

Turning to `O=C(Nc1c(-c2ccccc2)nc2ncccn12)c1cc2ccccc2oc1=O`, the “hERG current change (%, negative = inhibition) at 1uM” value was determined as 2.02%.

On to `O=C(C1Cc2ccccc2CN1C(=O)c1ccco1)N1CCN(c2ccccc2)CC1` (centres unmarked), for which the “hERG current change (%, negative = inhibition) at 1uM” value was -3.04%.

On to `CCSc1nnc(NC(=O)c2cccs2)s1`, for which the “hERG current change (%, negative = inhibition) at 1uM” value was -19.4%.

As for `O=C(NCCN1CCOCC1)NC1(C(F)(F)F)Oc2ccc(Cl)cc2O1` (centres unmarked), the “hERG current change (%, negative = inhibition) at 1uM” value is -2.19%.

In the case of `CC1CCCC(C)N1C(=O)C1CC(c2ccc(F)cc2)=NO1` (centres unmarked), the “hERG current change (%, negative = inhibition) at 1uM” value is reported as -3.84%.

Turning to `O=C(Nc1ccc(CN2CCOCC2)cc1)c1cccs1`, the “hERG current change (%, negative = inhibition) at 1uM” value is given as -1.43%.

For `COc1cccc(-n2ccn(CC(=O)NCCc3ccccc3)c(=O)c2=O)c1`, the “hERG current change (%, negative = inhibition) at 1uM” value was found to be 12.4%.

Turning to `Cc1ccc(C(=O)C(OC(=O)CCC(=O)Nc2cccc(C)c2)c2ccccc2)cc1` (centres unmarked), the “hERG current change (%, negative = inhibition) at 1uM” value worked out at 5.88%.

Turning to `Cc1cc2ncn(CCCCOc3ccccc3)c2cc1C`, the “hERG current change (%, negative = inhibition) at 1uM” value was found to be 10.6%.

Turning to `CC(C)COC(=O)c1cc(-c2ccc(/C=N/n3cnnc3)o2)ccc1Cl`, the “hERG current change (%, negative = inhibition) at 1uM” value turned out to be 7.71%.

As to `Cc1cc(C)c(NC(=O)c2cc(=O)c3ccccc3o2)c(C)c1`, the “hERG current change (%, negative = inhibition) at 1uM” value is -12.8%.

For the compound `COc1cccc(NC(=O)CN(c2ccc(C)cc2)S(=O)(=O)c2c(C)nn(C)c2C)c1`, the “hERG current change (%, negative = inhibition) at 1uM” value is reported as -1.17%.

For `Cc1sc(NC(=O)CSc2nnc(C)c(=O)[nH]2)c(C#N)c1C`, the “hERG current change (%, negative = inhibition) at 1uM” value is reported as 17%.

In the case of `Cc1ccc(CC(=O)Nc2nccs2)cc1C`, the “hERG current change (%, negative = inhibition) at 1uM” value was 9.56%.

Consider `COc1cccc(/C=C2\SC(=O)N(CC(=O)NCCCn3ccnc3)C2=O)c1`, for which the “hERG current change (%, negative = inhibition) at 1uM” value was 9.38%.

`Cc1ccc(C)c(SCC(=O)NCC(c2ccco2)N2CCCCC2)c1` (centres unmarked): the “hERG current change (%, negative = inhibition) at 1uM” value is listed as 14.3%.

As to `Cc1ccnc(NC(=O)CNC(=O)c2ccc3c(c2)OCO3)c1`, the “hERG current change (%, negative = inhibition) at 1uM” value is given as 6.89%.

For `Cc1ccc(NC(=O)c2cc(N3C(=O)C=CC3=O)ccc2N2CCOCC2)cc1Cl`, the “hERG current change (%, negative = inhibition) at 1uM” value is on record as 14.4%.

`O=C1CCC(=O)N1c1ccc(-c2nc3sc4c(c3c(=O)o2)CCC4)cc1`: the “hERG current change (%, negative = inhibition) at 1uM” value is -4.84%.

Take `CCOc1nc2ccccc2cc1C=O`: the “hERG current change (%, negative = inhibition) at 1uM” value is 4.75%.

For the compound `Nc1ccccc1SCC(=O)Nc1ccc2c(c1)OCO2`, the “hERG current change (%, negative = inhibition) at 1uM” value is on record as 9.58%.

As to `Cc1ccc(N(C(=O)Cn2nnc3ccccc32)C(C(=O)NCc2ccco2)c2cccnc2)cc1` (centres unmarked), the “hERG current change (%, negative = inhibition) at 1uM” value was 3.55%.

With `COC(=O)CCCCCC(CCC(=O)OC)NC(C)=O` (centres unmarked), the “hERG current change (%, negative = inhibition) at 1uM” value worked out at 9.7%.

Consider `COc1ccc(Br)cc1/C=C1\Oc2ccccc2NC1=O`, for which the “hERG current change (%, negative = inhibition) at 1uM” value came to 11.3%.

Turning to `O=C(NCC(c1ccco1)N1CCCCC1)c1ccc(NS(=O)(=O)c2ccc(F)cc2)cc1` (centres unmarked), the “hERG current change (%, negative = inhibition) at 1uM” value is 2.07%.
